Data reported in PubChem BioAssay AID1347165 (National Center for Advancing Translational Sciences (NCATS), 2019).
Screen size: about 220,000 compounds; about 5,700 (2.6%) were called active. This list was built around the results that the source calls inconclusive (neither active nor inactive); the mix of calls is not that of the screen. Calls follow the shape of the dose curve; as a rule, active = well fitted inhibition curve with a large enough effect; inconclusive = small, poorly fitted or top-dose-only effect; inactive = no such curve, though single readings can be large or run the other way. Where the call is inconclusive, the potency comes from a doubtful curve fit.

These molecules were tested against Lysine-specific demethylase 5B (Homo sapiens) (UniProt Q9UGL1) (assay: Primary screen for KDM5B Histone Demethylases FDH-coupled qHTS). Conditions: FDH-coupled NADH fluorescence (FDH is formaldehyde dehydrogenase); activity change, negative = inhibition: at 57.7 µM (top of the series).
Sequence of UniProt Q9UGL1 (Q9UGL1 whole entry, looked up): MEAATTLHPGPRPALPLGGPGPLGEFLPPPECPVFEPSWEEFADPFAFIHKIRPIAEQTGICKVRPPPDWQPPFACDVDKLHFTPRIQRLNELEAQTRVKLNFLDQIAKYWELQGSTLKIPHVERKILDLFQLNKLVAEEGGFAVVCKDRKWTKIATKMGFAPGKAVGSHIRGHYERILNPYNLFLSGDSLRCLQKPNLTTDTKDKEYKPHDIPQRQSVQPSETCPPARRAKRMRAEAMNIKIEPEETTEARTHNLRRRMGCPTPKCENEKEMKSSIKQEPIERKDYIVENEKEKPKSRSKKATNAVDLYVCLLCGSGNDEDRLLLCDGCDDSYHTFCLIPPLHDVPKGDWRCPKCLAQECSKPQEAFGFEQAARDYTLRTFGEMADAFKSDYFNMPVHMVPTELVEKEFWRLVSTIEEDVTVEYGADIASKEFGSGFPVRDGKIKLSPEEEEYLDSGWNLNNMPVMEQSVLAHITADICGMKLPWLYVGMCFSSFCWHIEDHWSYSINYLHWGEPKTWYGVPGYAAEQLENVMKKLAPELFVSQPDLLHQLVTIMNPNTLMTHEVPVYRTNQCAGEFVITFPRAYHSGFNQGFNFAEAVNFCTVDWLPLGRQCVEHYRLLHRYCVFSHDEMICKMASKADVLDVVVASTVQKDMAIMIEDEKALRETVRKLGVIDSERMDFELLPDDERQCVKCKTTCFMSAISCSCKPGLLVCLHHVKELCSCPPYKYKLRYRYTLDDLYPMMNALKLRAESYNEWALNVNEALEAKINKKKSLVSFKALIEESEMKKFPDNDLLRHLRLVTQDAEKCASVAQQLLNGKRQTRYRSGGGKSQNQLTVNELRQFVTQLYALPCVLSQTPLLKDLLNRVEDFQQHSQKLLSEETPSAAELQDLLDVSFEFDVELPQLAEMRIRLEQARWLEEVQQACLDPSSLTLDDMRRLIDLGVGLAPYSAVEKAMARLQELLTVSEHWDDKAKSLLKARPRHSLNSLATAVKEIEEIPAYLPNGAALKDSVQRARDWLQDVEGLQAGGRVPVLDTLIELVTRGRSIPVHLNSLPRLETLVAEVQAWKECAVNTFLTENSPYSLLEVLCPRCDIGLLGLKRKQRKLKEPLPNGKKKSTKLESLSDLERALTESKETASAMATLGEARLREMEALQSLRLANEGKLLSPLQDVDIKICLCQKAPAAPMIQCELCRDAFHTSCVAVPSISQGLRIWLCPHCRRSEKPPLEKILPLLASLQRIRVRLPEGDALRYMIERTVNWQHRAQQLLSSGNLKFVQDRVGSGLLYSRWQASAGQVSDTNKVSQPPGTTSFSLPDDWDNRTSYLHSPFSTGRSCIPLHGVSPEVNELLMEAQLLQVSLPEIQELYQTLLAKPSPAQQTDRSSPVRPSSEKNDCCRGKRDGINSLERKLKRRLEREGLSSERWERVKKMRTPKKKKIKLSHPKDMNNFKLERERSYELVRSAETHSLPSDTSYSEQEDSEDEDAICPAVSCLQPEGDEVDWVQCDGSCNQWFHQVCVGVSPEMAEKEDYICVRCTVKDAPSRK
Summary of the method: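 KDM5BΔAP (200 nM final) in 50 mM HEPES pH 7.5, 0.01% Tween-20 was preincubated 10 min at RT with compound over a concentration range. Substrate mix (H3K4me3 12.5 µM, α-KG 25 µM, Fe²⁺, ascorbate, NAD⁺, FDH) was added, and NADH fluorescence change over 30 min gave dose-response curves.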
Also: nearly all actives have a fitted effect of over 70% in size.
For activity change, negative = inhibition in this document: 0% is about no effect.
Potency is read from the fitted curve at half-maximal effect; tags tell the direction and shape of the fitted curve.

**Q.** For `Cc1ccc(C2SCC(=O)Nc3n[nH]c(C)c32)cc1` (stereo not drawn), which Potency is on record?
**A.** Its Potency is inconclusive: 25.1 µM [inhibitor, single point].

**Q.** With `COc1ccc(CNCCc2ccc(Cl)cc2)cc1` as the molecule, how does the Potency read?
**A.** Its Potency is inconclusive: 31.6 µM [inhibitor, single point].

**Q.** `COCC1CN(C(C)=O)CC12CCNCC2` (stereo not drawn) was tested. Which Potency did it give?
**A.** The Potency was inconclusive: 35.5 µM [inhibitor, partial curve, poor fit].

**Q.** Which Potency does the source give for `O=C(c1ccccc1)N1C[C@@H]2C[C@H](C1)c1ccc(C3CCCCC3)c(=O)n1C2` here?
**A.** The Potency was active: 39.8 µM.

**Q.** For `O=C1NC(=O)C(=Cc2ccc(-c3ccccc3[N+](=O)[O-])o2)C(=O)N1`, which Potency is on record?
**A.** Its Potency is inconclusive: 31.6 µM [inhibitor, partial curve, poor fit].

**Q.** With `NC(=O)CN1C(=O)CO[C@H]2CN(C3CCC3)C[C@H]21` as the molecule, how does the “activity change, negative = inhibition” value read?
**A.** Its value is inactive: -19.4% [at 115 µM].

**Q.** Which Potency does the source give for `Cc1cccc(Cn2cccc(C(=O)Nc3cc(C)on3)c2=O)c1` here?
**A.** Its Potency is inconclusive: 31.6 µM [inhibitor, partial curve, poor fit].

**Q.** With `Cc1noc(C)c1COc1ccc(CC(=O)N(CCC#N)CCN2CCOCC2)cc1` as the molecule, how does the “activity change, negative = inhibition” value read?
**A.** Its value is inactive: 16.3%.

**Q.** For `CN1C(=O)C(=Cc2cccnc2)C(=O)N(C)C1=O`, which Potency is on record?
**A.** Its Potency is inconclusive: 35.5 µM [inhibitor, single point].

**Q.** With `CCCCn1c(C)c(C(=O)OCC)c2cc(OC)ccc21` as the molecule, how does the “activity change, negative = inhibition” value read?
**A.** Its value is inactive: -10.5%.

**Q.** How did the Potency turn out when `CCCS(=O)(=O)N1C[C@@H]2C[C@H](C1)c1c(-c3cccc(C#N)c3)ccc(=O)n1C2` was run?
**A.** Its Potency is inconclusive: 31.6 µM [inhibitor, partial curve].

**Q.** How did the Potency turn out when `N#Cc1cccc(-c2ccc3n(c2=O)C[C@H]2C[C@@H]3CN(C(=O)Nc3ccccc3)C2)c1` was run?
**A.** The Potency was active: 35.5 µM.

**Q.** Which “activity change, negative = inhibition” value does the source give for `COc1cc2c(cc1OCc1ccccc1)NC(=O)C21CCN(Cc2c(C)noc2C)CC1` here?
**A.** Its value is inactive: -9.19%.

**Q.** `O=C(NCc1ccco1)[C@H]1CN2CC[C@H]1C[C@@H]2Cn1cc(CCO)nn1` was tested. Which Potency did it give?
**A.** The Potency was inconclusive: 35.5 µM [inhibitor, single point].

**Q.** Which Potency does the source give for `CC(C)N1C(=O)NC(=O)C2(Cc3c(ccc4ccccc34)N(C)C2)C1=O` (stereo not drawn) here?
**A.** Its Potency is inconclusive: 39.8 µM [inhibitor, single point].

**Q.** Which Potency does the source give for `COc1ccc(C(C)=O)cc1Cc1c(O)[nH]c(=S)[nH]c1=O` here?
**A.** The Potency was inconclusive: 8.91 µM [inhibitor, full curve, poor fit].

**Q.** With `Cc1nc(-c2ccccc2Br)cc([C@H]2CN3CC[C@H]2C[C@@H]3CNC(=O)Nc2cccc(C#N)c2)n1` as the molecule, how does the Potency read?
**A.** The Potency was inconclusive: 22.4 µM [inhibitor, partial curve].

**Q.** How did the Potency turn out when `CC(C)(C)CC(=O)N1C[C@@H]2C[C@H](C1)c1ccc(NC(=O)c3ccco3)c(=O)n1C2` was run?
**A.** The Potency was inconclusive: 35.5 µM [inhibitor, partial curve].
